Out of some 390,000 compounds screened, about 17,000 (4.4%) were called active. Inconclusive results, whose numbers are uncertain, are shown with a selection of clear calls. Calls follow the shape of the dose curve; as a rule, active = well fitted inhibition curve with a large enough effect; inconclusive = small, poorly fitted or top-dose-only effect; inactive = no such curve, though single readings can be large or run the other way. Potencies beside an inconclusive call are fits to weak or partial responses and may not hold up.
The compounds below were run against Lysine-specific demethylase 4A (Homo sapiens) (UniProt O75164) (assay: qHTS Assay for Inhibitors of JMJD2A-Tudor Domain). Conditions: AlphaScreen JMJD2A-Tudor / H3K4me3 peptide binding; activity change, negative = inhibition: at 114 µM (top of the series).
% is scaled to controls: 0 for no effect and ±100 for the full control effect; potency is read from the fitted curve at half-maximal effect; tags tell the direction and shape of the fitted curve.
Also: nearly all actives have a fitted effect of over 50% in size.

Sequence of UniProt O75164 (O75164 whole entry, looked up, the tested form may be a part): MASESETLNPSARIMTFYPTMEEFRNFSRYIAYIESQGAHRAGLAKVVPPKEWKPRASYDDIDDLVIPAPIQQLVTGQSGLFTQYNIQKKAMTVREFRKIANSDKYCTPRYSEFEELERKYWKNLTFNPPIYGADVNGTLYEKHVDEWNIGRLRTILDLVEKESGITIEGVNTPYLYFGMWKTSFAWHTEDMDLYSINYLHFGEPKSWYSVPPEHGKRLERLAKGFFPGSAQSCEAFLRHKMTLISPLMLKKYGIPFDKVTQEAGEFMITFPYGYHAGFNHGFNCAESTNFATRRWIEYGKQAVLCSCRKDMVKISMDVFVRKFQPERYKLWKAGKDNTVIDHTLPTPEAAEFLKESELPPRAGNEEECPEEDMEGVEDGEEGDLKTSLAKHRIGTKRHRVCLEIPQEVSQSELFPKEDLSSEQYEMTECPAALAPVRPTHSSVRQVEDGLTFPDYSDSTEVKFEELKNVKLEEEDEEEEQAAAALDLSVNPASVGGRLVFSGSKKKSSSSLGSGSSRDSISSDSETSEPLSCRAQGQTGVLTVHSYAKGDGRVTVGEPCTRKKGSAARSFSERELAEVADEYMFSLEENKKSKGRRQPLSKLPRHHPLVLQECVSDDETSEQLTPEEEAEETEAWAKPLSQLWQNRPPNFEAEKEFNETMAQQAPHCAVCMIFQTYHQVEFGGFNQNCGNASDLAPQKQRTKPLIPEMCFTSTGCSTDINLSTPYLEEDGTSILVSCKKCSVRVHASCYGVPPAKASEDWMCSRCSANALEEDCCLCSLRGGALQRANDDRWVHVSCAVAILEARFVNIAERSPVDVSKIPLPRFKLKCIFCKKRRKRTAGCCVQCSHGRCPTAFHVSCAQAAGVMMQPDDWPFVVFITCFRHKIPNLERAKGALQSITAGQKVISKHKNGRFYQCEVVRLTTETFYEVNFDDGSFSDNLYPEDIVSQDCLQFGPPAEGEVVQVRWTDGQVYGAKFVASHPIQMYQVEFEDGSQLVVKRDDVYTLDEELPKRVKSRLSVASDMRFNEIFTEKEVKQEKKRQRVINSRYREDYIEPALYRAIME

How did the Potency turn out when `O=C1C(=O)N(C2CCS(=O)(=O)C2)C(c2cccc(O)c2)/C1=C(/O)c1ccc(Cl)cc1` (configuration not stated) was run?
The Potency was inconclusive: 89.1 µM [inhibitor, single point].

`COC(=O)c1sc(NC(=O)CSc2nc3cccnc3n2C)nc1C` was tested. Which Potency did it give?
Its Potency is “inactive”.

With `N#C/C(=C\C=C\c1ccccc1[N+](=O)[O-])C(=O)NC1CCCCC1` as the compound, how does the Potency read?
Its Potency is inconclusive: 17.8 µM [inhibitor, single point].

With `Cc1ccc(C)c(NC(=O)CSc2nnc(C)n3c2cc2occc23)c1` as the compound, how does the Potency read?
Its Potency is “inactive”.

With `C=C1CCN(C(CC(C)C)C(=O)NCCCc2ccccc2)S(=O)(=O)c2ccccc21` (configuration not stated) as the compound, how does the Potency read?
The Potency was “inactive”.

With `Cc1cccc(-c2nc(Nc3ccc(N4CCOCC4)cc3)c3ccccc3n2)c1` as the compound, how does the Potency read?
The Potency was active: 39.8 µM.

How did the Potency turn out when `O=C(O)CCC(NS(=O)(=O)c1ccc(-c2ccccc2)cc1)C(=O)O` (configuration not stated) was run?
The Potency was inconclusive: 11.2 µM [inhibitor, partial curve].

Which Potency does the source give for `O=C1NCCN(CC2CCN(CCc3ccc(Cl)c(Cl)c3)CC2)C1=O` here?
Its Potency is active: 79.4 µM.

With `Cc1ccc(CNC(=O)c2cc(C3CC3)nc3c2c(C)nn3-c2cccc(Cl)c2C)cc1` as the compound, how does the Potency read?
Its Potency is “inactive”.

Which Potency does the source give for `Cc1cc([N+](=O)[O-])ccc1NC(=S)NC(=O)C(c1ccccc1)c1ccccc1` here?
The Potency was inconclusive: 44.7 µM [inhibitor, partial curve].

`CCn1c(Sc2ccc([N+](=O)[O-])cn2)nnc1-c1ccco1` was tested. Which Potency did it give?
Its Potency is active: 25.1 µM.

`Cc1cccn2c(Nc3ccc4c(c3)OCCO4)c(-c3ccc(Br)o3)nc12` was tested. Which Potency did it give?
The Potency was active: 22.4 µM.

How did the Potency turn out when `CNC(=O)c1ccsc1NC(=O)c1sc2ccccc2c1Cl` was run?
The Potency was inconclusive: 44.7 µM [inhibitor, partial curve].

How did the Potency turn out when `COCCn1c(C)cc(C(=O)CSc2nc(C)c(C)c(C)n2)c1C` was run?
Its Potency is inconclusive: 89.1 µM [inhibitor, partial curve].

`COc1ccccc1NC(=O)c1oc2ccccc2c1NC(=O)c1ccc(S(=O)(=O)N(C)C)cc1` was tested. Which Potency did it give?
Its Potency is “inactive”.

With `Cc1cccc(C2c3[nH]c4ccccc4c3CCN2C(=O)c2cn(C)c3ccccc3c2=O)n1` (configuration not stated) as the compound, how does the Potency read?
Its Potency is inconclusive: 50.1 µM [inhibitor, partial curve, poor fit].

For `N#CCSc1nnc(Cc2ccc3c(c2)OCO3)o1`, which Potency is on record?
Its Potency is inconclusive: 100 µM [inhibitor, single point].

Which Potency does the source give for `Cc1ccccc1S(=O)(=O)Nc1nc2ccccc2nc1N1CCc2ccccc2C1` here?
The Potency was “inactive”.

With `CCOC(=O)c1cc(S(=O)(=O)Nc2ccc(OC(F)(F)F)cc2)[nH]n1` as the compound, how does the Potency read?
The Potency was inconclusive: 79.4 µM [inhibitor, partial curve].

Which Potency does the source give for `C=CCNc1nc(=S)[nH]c2cc(OC)c(OC)cc12` here?
Its Potency is inconclusive: 2.82 µM [inhibitor, full curve, poor fit].

For `COc1ccc(C2=NN(c3nc(C(=O)O)cs3)C(O)(C(F)(F)F)C2)c(OC)c1` (configuration not stated), which Potency is on record?
The Potency was “inactive”.

`CN(C)c1cccc(N=C2C=C(N3CCOCC3)CC(C)(C)C2)c1` was tested. Which Potency did it give?
Its Potency is active: 50.1 µM.

For `Nc1c(S(=O)(=O)c2cccs2)c2nc3ccccc3nc2n1/N=C/c1cccc(O)c1`, which activity change, negative = inhibition is on record?
The activity change, negative = inhibition was inactive: -30.1% [at 11.4 µM].

With `COc1ccc(N2CCN(C(=O)CSc3nnnn3-c3ccc4c(c3)OCCO4)CC2)cc1` as the compound, how does the Potency read?
Its Potency is inconclusive: 50.1 µM [inhibitor, partial curve].

For `COc1ccc(C(=O)/C=C/c2ccc(F)cc2)c(OC(=O)c2ccc([N+](=O)[O-])cc2)c1`, which Potency is on record?
Its Potency is inconclusive: 50.1 µM [inhibitor, partial curve].

`CC1(C)CC(=O)C(N=Nc2cccc([N+](=O)[O-])c2)=C(O)C1` was tested. Which Potency did it give?
The Potency was inconclusive: 35.5 µM [inhibitor, partial curve].

With `CCc1ncc(CN2CCCC(C(=O)Nc3cccc(-c4cccc(C)c4)c3)C2)cn1` (configuration not stated) as the compound, how does the Potency read?
The Potency was active: 79.4 µM.

`CCn1cc(CN2CCc3c([nH]c4ccccc34)C2c2cccc(O)c2)c(C)n1` (configuration not stated) was tested. Which Potency did it give?
The Potency was “inactive”.

How did the Potency turn out when `O=C1CCN(C(=O)Nc2ccccc2Cl)N1` was run?
The Potency was inconclusive: 39.8 µM [inhibitor, single point].

`N#CCN(CC#N)C(=O)C1c2ccccc2Oc2ccccc21` was tested. Which Potency did it give?
The Potency was active: 39.8 µM.

How did the Potency turn out when `CCOc1cccc2cc(C(=O)N3CCN(C/C=C/c4ccccc4)CC3)c(=O)oc12` was run?
The Potency was inconclusive: 89.1 µM [inhibitor, partial curve].

Which Potency does the source give for `CC1CCN(CC(=O)Nc2ccc(Cl)cc2[N+](=O)[O-])CC1` here?
The Potency was inconclusive: 17.8 µM [inhibitor, full curve].

How did the Potency turn out when `COc1cccc(C(=O)Oc2ccc3c(C)cc(=O)oc3c2C(C)=O)c1` was run?
The Potency was inconclusive: 89.1 µM [inhibitor, single point].

For `COc1ccc(S(=O)(=O)NC2CCCCC2)cc1-n1cnnn1`, which Potency is on record?
The Potency was active: 79.4 µM.

`COc1cccc(-c2nnc(NC(=O)c3ccc(Cl)s3)o2)c1` was tested. Which Potency did it give?
Its Potency is “inactive”.

Which Potency does the source give for `O=C(CN1CCN(c2ccc(O)cc2)CC1)Nc1cc(S(=O)(=O)N2CCCC2)ccc1Cl` here?
The Potency was inconclusive: 44.7 µM [inhibitor, partial curve].

With `CC(NC(=O)CN(C)CC(=O)Nc1cccc(F)c1)c1ccccc1` (configuration not stated) as the compound, how does the Potency read?
The Potency was “inactive”.

Which Potency does the source give for `COc1ccc(CCN(C)Cc2ccc(OC)c(OCc3ccccc3)c2)cc1OC` here?
Its Potency is active: 3.16 µM.

With `CCC(C(=O)NCCC1=CCCCC1)n1nc(C)c2c(C)n(-c3ccccc3)nc2c1=O` (configuration not stated) as the compound, how does the Potency read?
Its Potency is inconclusive: 20 µM [inhibitor, full curve].

With `O=C(Cc1cccs1)Nc1ccc(S(=O)(=O)N2CCCCC2)cc1` as the compound, how does the Potency read?
The Potency was inconclusive: 50.1 µM [inhibitor, partial curve].

For `Cc1cccc(-n2c(C)n[nH]c2=S)c1`, which Potency is on record?
Its Potency is active: 10 µM.

For `COc1cc(C(=O)NCC(=O)N/N=C/c2ccc(OC(=O)c3ccco3)cc2)cc(OC)c1OC`, which Potency is on record?
The Potency was “inactive”.

`O=C(NCc1cccnc1)C(=O)C1C(=O)Nc2ccccc21` (configuration not stated) was tested. Which Potency did it give?
The Potency was inconclusive: 100 µM [inhibitor, single point].

For `O=C(NC1CCCCC1)C1CC(=O)N(c2ccccc2)C1` (configuration not stated), which Potency is on record?
Its Potency is “inactive”.

With `COc1ccc(CNC(=O)CCCC(=O)Nc2cccc(Br)c2)cc1` as the compound, how does the Potency read?
Its Potency is “inactive”.

With `CNC(=S)N/N=C/c1ccc(-c2ccc(C(=O)O)cc2)o1` as the compound, how does the activity change, negative = inhibition read?
Its activity change, negative = inhibition is inactive: -3.68% [at 11.4 µM].

Which Potency does the source give for `CCN(CC)C(=O)c1sc(NC(=O)c2ccc3c(c2)OCO3)c(C(N)=O)c1C` here?
The Potency was “inactive”.
